{
  "source": "PubChem BioAssay AID2675",
  "about": "(National Center for Advancing Translational Sciences (NCATS), 2010)",
  "note": "In all, about 280,000 compounds went through this assay and about 100 (0.036%) were called active. Inconclusive results, whose numbers are uncertain, are shown with a selection of clear calls. The call rests on the fitted dose curve; in most records, active means well fitted inhibition curve with a large enough effect in the signal ratio, with a control signal flat (not every such curve was filed as active); inconclusive means small, poorly fitted or top-dose-only effect, or effect the other way, or a change in a side signal; inactive means no such curve, though single readings can be large or run the other way; the % refers to the signal ratio. Where the call is inconclusive, the potency comes from a doubtful curve fit. A note “side channel” means that the fit belongs to a control or component signal, not to the main read-out. Potency means the concentration at half of the fitted maximal effect; tags describe the fitted curve by direction and shape or compound fluorescence and quenching.",
  "data": [
    {"target": "Muscleblind-like protein 1 (Homo sapiens) (UniProt Q9NR56)", "sequence (Q9NR56 whole entry, looked up)": "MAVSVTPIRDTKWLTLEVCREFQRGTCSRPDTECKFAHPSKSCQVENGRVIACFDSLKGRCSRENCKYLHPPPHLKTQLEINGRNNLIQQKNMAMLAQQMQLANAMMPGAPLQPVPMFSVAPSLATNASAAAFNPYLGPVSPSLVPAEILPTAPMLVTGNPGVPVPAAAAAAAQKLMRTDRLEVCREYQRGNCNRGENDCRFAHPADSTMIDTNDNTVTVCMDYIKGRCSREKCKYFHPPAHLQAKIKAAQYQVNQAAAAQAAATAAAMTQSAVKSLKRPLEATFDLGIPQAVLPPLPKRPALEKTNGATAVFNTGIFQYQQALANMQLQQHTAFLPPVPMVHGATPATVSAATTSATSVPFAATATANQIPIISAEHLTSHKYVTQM", "experiment": "qHTS Assay for Inhibitors of MBNL1-poly(CUG) RNA binding", "conditions": "TR-FRET MBNL1-His/biotin-(CUG)12 binding, 665/545 ratio; series mostly up to 57.5 µM", "summary_of_the_method": "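Compound titration spanned 92 nM–58 uM against the MBNL1-His/biotin-(CUG)12 complex. After 60 min at room temperature with 5 nM streptavidin-XL665 and 0.055 ng/ul terbium anti-His, ratiometric 665/545 nm emission (Ex 340 nm) normalized to controls.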", "values": [
      {"compound": "CC(=O)Oc1ccc(/C=C/c2nc3ccccc3c(=O)o2)cc1", "Potency": "inconclusive: 31.6 µM [quencher, side channel, single point]"},
      {"compound": "CCOC(=O)c1sc(NC(=O)CN(CC)CC)c(C(=O)OCC)c1C", "Potency": "inactive"},
      {"compound": "O=C(N/N=C/c1cccs1)c1cc(-c2ccc(Cl)s2)[nH]n1", "Potency": "inactive"},
      {"compound": "COc1ccc(C(=O)NC2CC(C)(C)Cc3occc32)cc1", "note": "(stereo unspecified)", "Potency": "inconclusive: 0.1 µM [fluorescent, side channel, full curve]"},
      {"compound": "Cc1ccsc1/C=N/n1c(=S)[nH]nc(C)c1=O", "Potency": "inconclusive: 39.8 µM [quencher, side channel, single point]"},
      {"compound": "N#Cc1c(Nc2ccccc2)sc(C(=O)c2ccccc2)c1N", "Potency": "inconclusive: 14.1 µM [quencher, partial curve]"},
      {"compound": "CCN1C(=O)/C(=C\\N(C(C)=O)c2ccccc2)OC1=S", "Potency": "inconclusive: 0.158 µM [quencher, side channel, full curve, poor fit]"},
      {"compound": "COCCNC(=S)N/N=C/c1c(C)[nH]c2ccccc12", "Potency": "inconclusive: 39.8 µM [quencher, side channel, single point]"},
      {"compound": "CCOC(=O)c1cnc2c(ccc3ccccc32)c1NCCN(C)C", "Potency": "inactive"},
      {"compound": "COc1ccc(/C=N/N=C(\\N)c2nonc2N)cc1OC", "Potency": "inconclusive: 20 µM [quencher, side channel, partial curve]"},
      {"compound": "CCN(CCCNC(=O)CCc1nc(-c2ccc(C)cc2)no1)c1cccc(C)c1", "Potency": "inactive"},
      {"compound": "CCCN1CCN(CCCNC(=O)c2cc3c(s2)-c2c(C)cccc2OC3)CC1", "Potency": "inconclusive: 28.2 µM [quencher, side channel, partial curve]"},
      {"compound": "O=[N+]([O-])c1ccc(/C=C/C2=NN(c3ccccc3)C(c3ccco3)C2)o1", "note": "(stereo unspecified)", "Potency": "inactive"},
      {"compound": "O=C(Nn1c(Cc2cccs2)nc2ccccc2c1=O)c1ccc(F)c(F)c1", "Potency": "inconclusive: 50.1 µM [inhibitor, single point]"},
      {"compound": "COc1ccc(S(=O)(=O)N2CCOCC2)cc1NC(=O)COC(=O)C1COc2ccccc2O1", "note": "(stereo unspecified)", "Potency": "inconclusive: 7.08 µM [quencher, side channel, single point]"},
      {"compound": "COc1cccc(N/C(SCc2cccc([N+](=O)[O-])c2)=C(/C#N)C(N)=O)c1", "Potency": "inconclusive: 39.8 µM [quencher, side channel, single point]"},
      {"compound": "CCOCC(=O)Nc1ccc([N+](=O)[O-])cc1Cl", "Potency": "inconclusive: 25.1 µM [quencher, side channel, partial curve]"},
      {"compound": "Cc1ccc(S(=O)(=O)CCC(=O)c2ccc(F)cc2)cc1", "Potency": "inactive"},
      {"compound": "O=[N+]([O-])c1ccc(-c2cnc[nH]2)cc1", "Potency": "inconclusive: 17.8 µM [quencher, side channel, partial curve]"},
      {"compound": "O=Cc1ccc(O)cc1O", "Potency": "inactive"},
      {"compound": "Cc1ccc(C)c(OCCCC(C)(C)C(=O)O)c1", "Potency": "inconclusive: 79.4 µM [inhibitor, partial curve, poor fit]"},
      {"compound": "CCOC(=O)C1C(=O)C=C(c2cccs2)CC1c1ccccc1", "note": "(stereo unspecified)", "Potency": "inconclusive: 22.4 µM [quencher, single point]"},
      {"compound": "CCOC(=O)CCCCC(=O)c1[nH]c(=O)[nH]c1C[n+]1ccccc1", "Potency": "active: 31.6 µM"},
      {"compound": "O=[N+]([O-])c1cc(C(F)(F)F)ccc1NC1CCN(Cc2ccccc2)CC1", "Potency": "inconclusive: 20 µM [quencher, side channel, partial curve]"},
      {"compound": "O=[N+]([O-])c1cccc(C2=NC(c3ccccc3)CO2)c1", "note": "(stereo unspecified)", "Potency": "inconclusive: 15.8 µM [quencher, side channel, partial curve]"},
      {"compound": "COc1cc([N+](=O)[O-])ccc1NC(=O)N1CCCCCC1", "Potency": "inconclusive: 12.6 µM [quencher, side channel, partial curve]"},
      {"compound": "COc1cc(/C=N/O)ccc1Oc1ccc([N+](=O)[O-])cc1[N+](=O)[O-]", "Potency": "inconclusive: 15.8 µM [quencher, side channel, partial curve]"},
      {"compound": "Cc1ccc(Cl)cc1NC(=S)NCCCSC1CCCCC1", "Potency": "inactive"},
      {"compound": "Cc1cc(C)nc(NC(=S)NC(=O)c2ccccc2)n1", "Potency": "inactive"},
      {"compound": "CC(C)(C)c1csc(NC(=O)c2ccc3nccnc3c2)n1", "Potency": "inconclusive: 15.8 µM [quencher, partial curve]"},
      {"compound": "Cc1nn(C)c(NC(=O)c2ccccc2Cl)c1Br", "Potency": "inactive"},
      {"compound": "O=C(C(NS(=O)(=O)c1cccc2nsnc12)c1ccccc1)N1CCN(c2ccccc2)CC1", "note": "(stereo unspecified)", "Potency": "inconclusive: 3.16 µM [quencher, side channel, full curve]"},
      {"compound": "O=C(O)COc1ccccc1C(Nc1cccnc1)c1cc(Cl)c2cccnc2c1O", "note": "(stereo unspecified)", "Potency": "inactive"},
      {"compound": "COc1ccc(Cl)cc1S(=O)(=O)n1ccnc1C(C)C", "Potency": "inactive"},
      {"compound": "O=C(c1cccc(S(=O)(=O)N2CCCC2)c1)c1cccc(S(=O)(=O)N2CCCC2)c1", "Potency": "inactive"},
      {"compound": "C=CCNS(=O)(=O)c1ccc2nsnc2c1", "Potency": "inconclusive: 14.1 µM [quencher, side channel, partial curve]"},
      {"compound": "Cn1c(Cn2c(=O)sc3ccccc32)nnc1SCC(=O)Nc1cccc(Cl)c1", "Potency": "inconclusive: 3.16 µM [fluorescent, side channel, partial curve]"},
      {"compound": "O=C(NC(=S)Nc1nc(-c2ccccc2)cs1)c1ccco1", "Potency": "inactive"},
      {"compound": "Oc1sc(C=Nc2ccc(F)cc2)c2ccccc12", "Potency": "inconclusive: 0.794 µM [quencher, side channel, single point]"},
      {"compound": "O=[N+]([O-])c1c(NCCCO)cc(Sc2ccc(Cl)cc2)c2nonc12", "Potency": "inconclusive: 2.24 µM [quencher, full curve]"},
      {"compound": "Cn1c(CCN2CCN(c3ccccc3)CC2)nc2cc(NC(=O)c3ccco3)ccc21", "Potency": "inactive"},
      {"compound": "O=C(Nc1cccnc1)C1CCN(S(=O)(=O)c2cccc3nonc23)CC1", "Potency": "inconclusive: 14.1 µM [quencher, side channel, partial curve]"},
      {"compound": "O=C(O)c1cc(O)c2c(c1)C(=O)c1cc(O)cc(O)c1C2=O", "Potency": "inconclusive: 7.94 µM [quencher, full curve]"},
      {"compound": "Nc1nnc(SCc2ccccc2Cl)s1", "Potency": "inactive"},
      {"compound": "Cc1cc[n+](-c2[nH]c(=O)sc2/C=N/N=C(\\[O-])c2ccccc2)cc1C", "Potency": "inconclusive: 25.1 µM [quencher, side channel, partial curve]"},
      {"compound": "COc1cc2nc(=S)n3[nH]c(COc4ccccc4C)nc3c2cc1OC", "Potency": "inconclusive: 31.6 µM [fluorescent, side channel, single point]"},
      {"compound": "Cc1ccccc1-n1c(-c2csc3ccccc23)n[nH]c1=S", "Potency": "inactive"},
      {"compound": "Cn1c(SCc2cccc([N+](=O)[O-])c2)nc2c(c1=O)SCC2", "Potency": "inconclusive: 17.8 µM [quencher, side channel, single point]"},
      {"compound": "COc1ccc(Nc2nc(N)c([N+](=O)[O-])c(NCCO)n2)cc1", "Potency": "inconclusive: 28.2 µM [quencher, side channel, partial curve]"},
      {"compound": "CCCNC(=O)c1nnsc1S(=O)(=O)c1ccc(Cl)cc1", "Potency": "inactive"},
      {"compound": "O=C(O)C1OC(Oc2cc3oc(-c4ccccc4)cc(=O)c3c(O)c2O)C(O)C(O)C1O", "note": "(stereo unspecified)", "Potency": "inconclusive: 25.1 µM [quencher, side channel, single point]"},
      {"compound": "Cc1ccc(-n2c(N)c(C(=O)N3CCOCC3)sc2=S)cc1", "Potency": "inconclusive: 14.1 µM [quencher, side channel, partial curve]"},
      {"compound": "Cn1cnnc1SCCCN1C(=O)c2cccc3cccc(c23)C1=O", "Potency": "inconclusive: 6.31 µM [quencher, side channel, partial curve]"},
      {"compound": "O=C(O)c1cc(NS(=O)(=O)c2ccc(NC3CCCCC3)c([N+](=O)[O-])c2)cc(C(=O)O)c1", "Potency": "inconclusive: 14.1 µM [quencher, side channel, partial curve]"},
      {"compound": "O=c1c2ccc([N+](=O)[O-])cc2ncn1CCOc1ccccc1", "Potency": "inconclusive: 12.6 µM [quencher, side channel, partial curve]"},
      {"compound": "O=C(N/N=C/c1cccc(OC(=O)N2CCOCC2)c1)c1cccs1", "Potency": "inactive"},
      {"compound": "CC(C)NC(=O)c1cc(C(=O)c2cc(Cl)ccc2O)coc1=N", "Potency": "inactive"},
      {"compound": "Cc1c(C(=O)O)nn(-c2ccccc2)c(=O)c1C#N", "Potency": "inconclusive: 14.1 µM [quencher, side channel, partial curve]"},
      {"compound": "COc1cc2c(cc1OC)C(c1cc3cc4c(cc3[nH]c1=O)OCO4)N(C(=O)C(C)C)CC2", "note": "(stereo unspecified)", "Potency": "inconclusive: 50.1 µM [inhibitor, partial curve]"},
      {"compound": "O=C(O)c1cc(NC(=O)c2cccc(N3C(=O)c4ccccc4C3=O)c2)cc(C(=O)O)c1", "Potency": "inconclusive: 31.6 µM [quencher, side channel, single point]"},
      {"compound": "CCOC(=O)C1=C(Cc2ccc(C)cc2)C(=O)c2ccccc2C1=O", "Potency": "inconclusive: 39.8 µM [quencher, single point]"},
      {"compound": "FC(F)(F)c1n[nH]c(=S)n1/N=C/c1ccco1", "Potency": "inconclusive: 79.4 µM [inhibitor, single point]"},
      {"compound": "S=c1[nH]nc(-c2ccc3ccccc3n2)n1-c1cc(Cl)cc(Cl)c1", "Potency": "inconclusive: 0.1 µM [fluorescent, side channel, full curve]"},
      {"compound": "CN1CCN(c2ccc(NC(=O)c3ccc4ccccc4c3)cc2)CC1", "Potency": "inactive"},
      {"compound": "O=C1/C(=C\\c2cccnc2)Sc2ccccc21", "Potency": "inconclusive: 15.8 µM [quencher, side channel, single point]"},
      {"compound": "COc1ccc(/C=C2\\CCc3c2nc2ccccc2c3C(=O)O)cc1OC", "Potency": "inconclusive: 14.1 µM [quencher, side channel, partial curve]"}
    ]}
  ]
}
